Measurements as given in publication PMC4336329 (PLoS ONE, 2015).
Among all 310,000 compounds or so, about 2,200 (0.71%) showed an effect of 50% or more. Effects have a minus sign here. This is one part of the list.

Molecular target: human ether-à-go-go-related gene (hERG) potassium channel (human, UniProt Q12809)
Assay: primary screen, population patch clamp on CHO cells stably expressing hERG

Sequence of human ether-à-go-go-related gene (hERG) potassium channel (Q12809 whole entry, looked up): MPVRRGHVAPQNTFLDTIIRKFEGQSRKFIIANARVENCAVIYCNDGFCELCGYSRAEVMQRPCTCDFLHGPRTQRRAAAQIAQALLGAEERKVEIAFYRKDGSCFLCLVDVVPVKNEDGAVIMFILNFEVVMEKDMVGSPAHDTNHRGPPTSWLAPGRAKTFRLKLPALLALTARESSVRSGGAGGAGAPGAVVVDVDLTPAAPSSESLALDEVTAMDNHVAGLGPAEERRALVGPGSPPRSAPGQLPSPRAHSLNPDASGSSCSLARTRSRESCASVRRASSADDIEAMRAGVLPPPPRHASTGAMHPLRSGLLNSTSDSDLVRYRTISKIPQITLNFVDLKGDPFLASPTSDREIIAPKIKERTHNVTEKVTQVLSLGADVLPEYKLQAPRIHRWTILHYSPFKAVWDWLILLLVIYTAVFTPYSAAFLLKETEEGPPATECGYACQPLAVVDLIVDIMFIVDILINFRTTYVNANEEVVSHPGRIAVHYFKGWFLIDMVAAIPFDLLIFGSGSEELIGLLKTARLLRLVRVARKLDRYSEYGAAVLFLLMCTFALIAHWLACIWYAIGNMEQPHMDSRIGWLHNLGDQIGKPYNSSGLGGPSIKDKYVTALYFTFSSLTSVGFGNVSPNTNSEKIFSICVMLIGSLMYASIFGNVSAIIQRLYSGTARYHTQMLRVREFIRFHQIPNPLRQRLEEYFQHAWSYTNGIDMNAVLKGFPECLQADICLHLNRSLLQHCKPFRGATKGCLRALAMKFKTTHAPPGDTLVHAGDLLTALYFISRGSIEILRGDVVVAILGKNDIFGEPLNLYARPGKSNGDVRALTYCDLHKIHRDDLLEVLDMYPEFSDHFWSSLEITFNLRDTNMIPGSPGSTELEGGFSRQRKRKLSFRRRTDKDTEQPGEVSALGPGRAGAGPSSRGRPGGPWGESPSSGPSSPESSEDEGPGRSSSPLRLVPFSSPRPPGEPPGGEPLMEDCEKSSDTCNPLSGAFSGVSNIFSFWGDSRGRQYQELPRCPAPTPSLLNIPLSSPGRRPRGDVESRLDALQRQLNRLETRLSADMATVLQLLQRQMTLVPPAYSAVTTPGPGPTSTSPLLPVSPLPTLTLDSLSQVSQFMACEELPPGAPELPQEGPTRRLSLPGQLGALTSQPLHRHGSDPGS

| Compound | hERG current change (%, negative = inhibition) at 1uM |
| --- | --- |
| CCOCCCNC(=O)CCC(=O)NNc1nc2ccccc2c2nc(-c3ccccc3)nn12 | -2.83% |
| COc1ccc(NC2CCCN(C(=O)c3cccnc3SC)C2)cc1OC (centres unmarked) | 8.52% |
| CCn1cc(C(=O)N2CCN(c3ccc(OC)cc3)CC2)c2cc(OC)c(OC)cc2c1=O | 5.58% |
| O=C1CN(C(=O)c2cccc(S(=O)(=O)N3CCCC3)c2)c2ccccc2N1 | 19.2% |
| CCOc1cc(N2CCOCC2)c(OCC)cc1NC(=O)[C@H](C)NC(=O)c1ccco1 | 14.8% |
| Cc1ccc(C(=O)NCC(=O)OCC(=O)N2CC(C)OC(C)C2)cc1 (centres unmarked) | 0.705% |
| COc1ccc(N(CC(=O)N2CCCC2)S(C)(=O)=O)cc1 | 17.4% |
| COc1ccc(NC(=O)c2oc3ccc(S(=O)(=O)N4CCC5(CC4)OCCO5)cc3c2C)cc1 | 4.23% |
| CC(=O)c1ccc(N2CCN(C(=O)CCS(=O)(=O)c3ccc4c(c3)CCN4C(C)=O)CC2)cc1 | 22.8% |
| Cc1ccc2nc(/C(C#N)=C\c3ccc([N+](=O)[O-])o3)[nH]c2c1 | 17.2% |
| Cc1ccc(NC(=O)CCNC(=O)c2ccccc2Cl)cc1S(=O)(=O)N1CCOCC1 | -1.19% |
| COc1cc(/C=N/NC(N)=O)ccc1OC(=O)c1ccco1 | 8.18% |
| Cc1c(NS(C)(=O)=O)cccc1-c1nc2cccnc2s1 | 3.25% |
| O=C(NNc1ncc(C(F)(F)F)cc1Cl)c1ccc(Cl)c(Cl)c1 | 6.62% |
| OCCCNc1nc(-c2ccccc2)c2cc(Br)ccc2n1 | 14.4% |
| Cc1cc(C)n(Cc2ccc(F)cc2)c(=O)c1C#N | 9.92% |
| COc1cccc(N(C(=O)c2cccs2)c2nc3ccccc3s2)c1 | 1.87% |
| O=C(NNC1=C(C(=O)C(F)(F)F)CCC1)c1cccc(O)c1 | 1.03% |
| COc1ccc(NC(=O)CC2SC(N3CCOCC3)=NC2=O)c(OC)c1 (centres unmarked) | 1.84% |
| CN1C(=O)N(C)C2(c3ccccc3)Nn3c(s/c(=C/c4ccco4)c3=O)=NC12c1ccccc1 (centres unmarked) | -2.44% |
| O=C(NCCc1ccccc1)C(c1ccccc1)N(C(=O)c1csnn1)C1CC1 (centres unmarked) | 7.04% |
| CC(C)(C)c1ccc(-c2nnc(SCC(=O)O)n2N)cc1 | 3.8% |
| O=C(COc1cccc2cccnc12)N/N=C1\SCC(=O)N1Cc1ccccc1 | -5.44% |
